Read counts are not given, so values of variants with three or more changes are uncertain.

The chains are these.
B1: LINE1-mini (parent)
chain: GGCAGAGCUCAACACAGCGUGGCAAAGUGGCUGUGGCUAGACUGCC

The variants in this data set derive from B1. Nature of the data set: self-cleavage, relative activity (ratio to wild type); higher = more cleavage; in vitro, sequencing; the parent is a self-cleaving ribozyme.
GACAGAGCUCAACACAGCGUUGCAAAUCGGGUGUGGCUAGACUGCC: the self-cleavage is 0.16.
On to GACAGAGCUCAACACAGCGUGGCAAAGUGGCUCUAGCCAGACUGCC, for which the self-cleavage was 0.03.
For GACAGAGCUCAACACAGCGUGGCAAAGUUGCUGUCGCUAGACUUCC, the self-cleavage turned out to be 0.14.
Turning to GACAGAGCUCAACACAGCGUGGCAAAGUGGCUCUGGCUACACUGCC, the self-cleavage was 0.06.
Next, GACAGAGCUCAACACAGCGUGUCAAAGUGGCUGUGGCUAGACAGCC: 0.22.
On to GACAGAGCUCAACACAGCGUGGCAAAGUGUCUGUGGCCAGACUGCU, for which the self-cleavage came to 1.07.
Regarding GACAGAGCUCAACACAGCGUGGCAAAGAGGCUGUGGGUAAACUGCC, the self-cleavage amounted to 0.13.
For GACAGAGCUCAACACAGCGUGUCAAAGUAGCGGUCGCUAGUCUGCC, the self-cleavage turned out to be 0.05.
For GACAGAGCUCAACACAGCGUUGCAAAGUGGCUGUGGCUAGACCGCC, the self-cleavage was 0.12.
Consider GACAGAGCACAACACAGCGUGGCAAAGUGGCUGUGGCUAAACUGCC, for which the self-cleavage came out at 0.01.
Consider GACAGAGCUCAACACAGCGUGGCAAAGUGGCUAUGGCUAGACGGAC, for which the self-cleavage is 0.22.
As to GACAGAGCUCAACACAGCGUGGCAAAGUGACUGUUGCUAGACUGCC, the self-cleavage was 0.13.
As to GACAGAGCUCAACACACCGUGCCAAAGUGGCUGUGGCUAGACUGCC, the self-cleavage amounted to 0.42.
Next, GACAGAGCUCAACACAGCGUGACAAAGUGGCUGUGCCUAGACUGCU: 0.31.
Regarding GACAGAGCACAACACAGCGUGGCUAAGUGGCUGUGGAUAGACUGCC, the self-cleavage came to 0.26.
In the case of GACAGAGCUCAACACAGCUUGCCAACGUGGCUGUGGCUAGAUUGCC, the self-cleavage worked out at 0.04.
On to GACAGAGCUCAACACAGCGUGGCAAAGUGGCUAUGGCUAGACUGCU, for which the self-cleavage is 0.22.
Next, GACAGAGCUCAACACAACGUGGCAAAGUGGCUGUGGCAAGACCCCC: 0.06.
On to GACAGAGCUCAACACAGCGUCGAAAAGUGGCUGGGGCUAGACUGAC, for which the self-cleavage amounted to 0.12.
As for GACAGAGCUCAACACAGCGUGGCAAAGUGGCUGUUGCUAGACUGAU, the self-cleavage was determined as 0.05.
As for GACAGAGCUCAACACAGCAUGGCAAACUGGCUGUGGCUAGACUGUC, the self-cleavage worked out at 1.91.
As for GACAGAGCACAACACACCGUGGCAAAGUGGCUGUGGCUAGACUGCA, the self-cleavage was found to be 0.29.
Regarding GACAGAGCUCAACACACCGUGGCAAAGUGGUUGUGGCUAGACUGCC, the self-cleavage is 0.06.
Regarding GACAGAGCUCAACACAGCGUGGCAAAGUGGCUCUGGGUAGACUGCC, the self-cleavage is 0.07.
In the case of GACAGAGCUCAACACAGCGUGGCAAACUGGCGGUGGCUAGACUGCC, the self-cleavage was found to be 0.16.
Consider GACAGAGCUCAACACAGCGUGGCAAACUGGCUGUGACUAGACUGCC, for which the self-cleavage was determined as 0.29.
As to GACAGAGCUCAACACAGCGUGGCAAACUGGCUGUGUCUAGACUGCC, the self-cleavage was found to be 0.16.
As to GACAGAGCGCAACACAGCGUGGUAAAGUGGCUGUGGCUAGACUGCC, the self-cleavage stood at 0.5.
Consider GACAGAGCGCAACACAGCGUGGAAAAGUGGCUGUGGCUAGACUGCC, for which the self-cleavage stood at 0.33.
With GACAGAGCUCAACACAGCAUAGCAAAGUCGCUGUCGCUAGAGUGCC, the self-cleavage was 0.05.
As for GACAGAGCGCAACACAGCGUGGCAAAGUGUCUGUUGCUAGACUGCC, the self-cleavage was determined as 0.1.
Next, GACAGAGCUCAACACAGCGUCGCAAAGUGGCUGUGGCUAGGCUGCG: 0.01; GACAGAGCUCAACACAGCCUGGCAAAGUGGCUGUGGCUUGACUGCC: 0.32.
Consider GACAGAGCUCAACACAGCGUGGCAAAGUGGCUGUUGCUAAACUGCC, for which the self-cleavage is 0.2.
For the variant GACAGAGCCCAACAUAACGUGGCAAUGUGGCUGUGGCUAGACUGCC, the self-cleavage was found to be 0.02.
Consider GACAGAGCUCAACACAGCGUUGAAUAGUGGCUGUGGCUAGACUGCC, for which the self-cleavage came out at 0.26.
With GACAGAGCGCAAUGCAGAGUGGCAAGGUGGCUUUGGCUAGACUGCA, the self-cleavage came to 0.03.
Regarding GACAGAGCUCAACACAGCGUGGCAAACAAGCGGUGGGUAGACAGCC, the self-cleavage was 0.09.
Next, GACAGAGCUCAACACAGCGUGGCAAAGUGGCUGUCGCUAGACUGCU: 0.18.
For GACAGAGCUCAACACAGCGUGGCAAAUUAGUGGUGGCUAGACUGCC, the self-cleavage came to 0.04.
For the variant GACAGAGCUCAACACAGCGUGUCAAAGUGGCUUUGGCAAGACUGCC, the self-cleavage came to 0.07.
Take GACAGAGCUCAACACAUCGUGGCAAGGUGGCUGUGGCUAGACAGCC: the self-cleavage was determined as 0.21.
As to GACAGAGCCCAACACAGCGUGGCAAAGUGGCUGUGCCUAGACUGCC, the self-cleavage was determined as 0.05.
As to GACAGAGCUCAACACAGCGAGGCAAAGUGGCUGUGGCUUGACUGCC, the self-cleavage came to 1.22.
Next, GACAGAGCUCAACACAGCGUGGCAAAGUGUCUGUGUCUAGACUGCC: 0.14; GACAGAGCACAACACAGCGUGGCAAAGUGGCUCUGGCUAGACUGCC: 0.06.
Next, GACAGAGCUCAACACAGCUUGGCAAAUUGGCUGUGGCUAGACUGCC: 0.42; GACAGAGCUCAACACAGCGUAGCAAAGUGGCUGUGUCUAGAAUGCC: 0.04; GACAGAGCGCAACACAGCAUUGCAAAGUGGCUGUGGCUAGACUGCC: 0.21.
With GACAGAGCUCAACACAGCGUGCCAAAGUGGCUGUAGCUAGACUGCC, the self-cleavage came out at 0.36.
Next, GACAGAGCUCAACACAGCGUGGCAAAAUGGCUGUGGCUACACUUCC: 0.05.
As for GACAGAGCUCAACACAGCGUGUCAAAGUGGCGGUGGCUAGACUGCC, the self-cleavage was 0.06.
Turning to GACAGAGCUCAACACAGCGUGGCAAAGUGUCUGUGGGUAGACUGCC, the self-cleavage was 0.
Regarding GACAGAGCUCAACACAGCUUGGCAUAGUGCCUGUGGCUAGACUGCU, the self-cleavage came out at 0.07.
For GACAGAGCUCAACACAGCGUGGCAAACCGGCUGAGGAUCGAAAGCC, the self-cleavage worked out at 0.05.
GACAGAGCUCAACACAGCGUGGCAAAGUCGCUGGGGCUAGACUCCC: the self-cleavage was 0.06.

The values are drawn from the RNAGym collection of RNA variant scans (doi:10.7554/elife.90254).
